Over roughly 2,700 sequences, “arbitrary fluorescence units” has its median near 4,100; the highest 2% begin near 54,000. This is one part of the list.

In this assay the target is T1, ETS1 (UniProt P14921).
T1 sequence: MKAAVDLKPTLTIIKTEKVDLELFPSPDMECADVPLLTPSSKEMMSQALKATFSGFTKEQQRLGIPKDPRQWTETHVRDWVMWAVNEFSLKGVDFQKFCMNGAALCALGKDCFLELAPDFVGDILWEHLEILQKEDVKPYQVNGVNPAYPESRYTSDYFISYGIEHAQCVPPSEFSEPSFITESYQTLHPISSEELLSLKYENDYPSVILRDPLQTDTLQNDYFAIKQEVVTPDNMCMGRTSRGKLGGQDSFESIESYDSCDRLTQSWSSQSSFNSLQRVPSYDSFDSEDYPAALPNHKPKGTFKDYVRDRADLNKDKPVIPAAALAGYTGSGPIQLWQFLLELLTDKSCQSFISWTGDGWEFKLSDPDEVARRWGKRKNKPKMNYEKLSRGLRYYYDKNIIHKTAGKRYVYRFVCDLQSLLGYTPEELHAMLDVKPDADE
The experiment in a line: ETS1 binding intensity (PBM fluorescence) (arbitrary fluorescence units); higher = stronger binding. Conditions: ETS1 concentration 10 nM. Here is the method:
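gcPBM on wild-type 36-bp genomic probes with two neighbouring ETS1 sites (4-24 bp apart). Recombinant human ETS1 (10 nM) was detected with anti-ETS1 antibody fluorescence. Values are medians over 3 replicate spots. The probes sit in constant array flanks that are not printed.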
For the sequence TGAATCATTTCCGCCTGCCCTTGCTTTCCGCCTTCT, the ETS1 binding intensity stood at 23700.
The value for AATGCTTCCCGGTATTTAACATTTCACTTCCTGACA was 2770; that for ATGAAGAAGGAAGTGGGTTAGCTCAGGAAATGAATA was 1290; that for TGGCTGCATCCTGAACGGCGCCTCCCGGAACCCGGC was 2530.
The value for GCCCGGCTTCCGGGGCTGCCCTGCCTTCCGCAGCGT was 17700.
Then GACGGCGCGGCTGCGGAACTTCCGGTCCGTGCTCGT, with 41700; and GAGCACGACTTCCGGCCTGAAAAGGAAGTCTCCTCC, with 89000.
For TGTTATTGGACAACTTCCAGGAAAACATCCTCAAGA, the ETS1 binding intensity was 273.
Then CTTCACATCCTCTCGAGCACCTGTTGTTTCCTGACT, with 11100; and GCCCGCCGGGAGCGGAAGCGGAAGCGGCGAGTCTCC, with 7840; and GATGCAAAAAGCATCCGCCCCGGAACCGGTTACCAG, with 3630.
In the case of GGGCGCTCCCGGGCTTCCTTCCTGCTCCCCTGGGTC, the ETS1 binding intensity was determined as 2060.
Sequence CAGGGCACACTTCCTCTCTCTCAGGATGCCCACAGA showed an ETS1 binding intensity of 12900.
In turn, TGGTGAAGGATGTAAGTGACCTAAAGGAAGTGCATA came in with an ETS1 binding intensity of 264.
As for GGGGGTATCCGCCTCTCGGGTAAGTCCGGAATCGGC, the ETS1 binding intensity was determined as 2010.
In turn, GTTTGAGTGCAGGAAAAGACAGGATGTGGTTACATA registered an ETS1 binding intensity of 2010.
Sequence ATTTTGTAACCTTCCGCTCAGTTTCCGGTAACCGCC came in with an ETS1 binding intensity of 9850.
AAGTCAGGGGAATTTCCTGAGGAAATGGAGCCCTAG displayed an ETS1 binding intensity of 1590.
Sequence CACCACATCCTCTCTAGTACCTGTTGTTTCCTGACT displayed an ETS1 binding intensity of 12500.
The sequence CAGATTGCTCATTTCCCTCAGGAAATTTCATTCAGG returned an ETS1 binding intensity of 468.
Consider TCCCACGCTCCGGAAACCATTATTCCGCTTCATCCT, for which the ETS1 binding intensity is 2380.
Then AAAAAAGGAAGTGGTATTTTTTGTATTTCCTGCTTT, with 7320.
ACTAGCGAGGCGGAAGTAAGGCGGAAGTACTGCCCT displayed an ETS1 binding intensity of 8320.
The value for GGAGGGAAAAACAGGAAGCGGAAAGGCTGCGAACGC was 5220.
The value for GCTTCGGAAGAGGCAGCAGGGCCTGGCCTTCCTGTC was 202; that for CGCCGGAAGTGGTCGCGGGTCGTTCTGCTTCCTGCC was 18000; that for GACAAGCCACATCCCTGTCACACATCCTGCGAAGGG was 1900.
The value for GACCAGATAAAGGAAGTGCTGCTTCCTATGCCTGAG was 3820; that for GCGCGGCTTCCGCGTGATGGACGCCCGGAAGCCGGC was 3850.
Consider GCCCATCAGGAAACTCTTACAGTCAGGAAACTTAAG, for which the ETS1 binding intensity came out at 274.
The sequence GTGGACGCCACAGGAAAGAGAGGAAGCGCCTGAGAG registered an ETS1 binding intensity of 319.
Then AGCGCAGCTTCCTCCGCCCACCACGGAAGTGAGGCG, with 3090.
The value for GCCTAGCACAACCGGAAAAGGAAGTGCCTCCGGCGC was 7780; that for ACCCCCTTCCTGAAGGGGGCGATCTGCTTCCTGCTG was 2970.
The value for GCTGCCGGAAGTCGCTCGACTTCTACTTCCGGTCCG was 32600.
Sequence CATGGCATCCTGGAGGTTGCGTTCTACTTCCTTGGA had an ETS1 binding intensity of 2810.
Then GGCACAGGATGTCGTCCCTCTCTGTGAGGAAGCCAC, with 5580; and AGCCACTTCCTCCAGCGTGAGCAGCACTTCCTCCTG, with 17200.
Then AATCACTTCCTCTCCAAGGGCTGCTGCTTCCTCTCC, with 26000; and AGGGGTCCCCGGAACCCAGGCCCTTCCGGTCCGGCA, with 7320.
The value for TCAATTTCCGCTCACTGCAACCTTCACTTCCTGGGT was 33300; that for AGAATGAGCTGCAGGAAGGCGGAAGCACTAGCGTGC was 421.
The sequence ATCAGCTGTTTCCTTTCACCTCCAGGAAGAGATAAC returned an ETS1 binding intensity of 2590.
Then TAAGACCCATTTCCTGCCCTCTGGGAAGTCACAGAC, with 24100.
The value for CGAAAGGAAACGGACTAGGTTCTGAAACTTCCTGTT was 2840.
In turn, GTCTCGCTGGCTCAGGAAGGAAGCTGCAGACTTTCG displayed an ETS1 binding intensity of 177.
Then GTGGGGCCTCAATTTCCTTTTCCTGTTCAGGGCGTG, with 6940; and CCCTACAGGAAGGGGCCTCTGCTACTTCCTAGACCG, with 2750.
In the case of AGCGGGACTTCCCACTGAGACGAGCGGATGTCATAT, the ETS1 binding intensity amounted to 1330.
Then GCCAGTGATCCTGTTTGAGCCTCTCAGGAAGCATTG, with 181; and GGGCCAGGAAGCCCAGGCAGCCTCACTTCCTCTCTC, with 1740.
Then TTCTCTGCCTTTCCTGCTTGGCTTCCTGATGGCTGC, with 1730; and TCCCTTCCTCTCTCTCTCACACACACACTTCCTCTC, with 5900; and TAAGTTTCCTGAGGCCTCTCCAGAAGAGGAAGCCCC, with 4420.
The value for TACTTTCCATTCCATCCACAGGATGCTTCCTGTGTA was 1250; that for GGCCAACAGGAAGCAGGTGCTCACATCCTGAAGCAC was 5370.
Sequence AGGCAGGAAATGGCTGTGGCTGAGGCAGGATGCATT showed an ETS1 binding intensity of 6180.
The sequence GCTTTGGTTTCCTCATATACAAACCGGATGAGATGG displayed an ETS1 binding intensity of 1870.
The value for ACCCCACAGGAAGGCCCAGGCGCCGGGAAACAGTCT was 351; that for AGCCATGGAGTTTCCTTTGAAGGAAATCAACATTTG was 826.
TTAACGGGAAGCTCTTTGCATTTGCATTTCCTCAAC yielded an ETS1 binding intensity of 301.
Sequence TGGCACAGGAAAGGGTCACAGAACACGGATATCTCA gave an ETS1 binding intensity of 608.
